Measurements as given in publication PMC12136788.
Some of the results follow.

B1: ENSG00000123684:stop:overlap|stop_codon|ENSG00000123684|stop_codon|NA|stop_codon (ssRNA)
RNA: GGGAGUUCUACAGUCCGACGAUCCAUUUUUGUCAGGCUAUAUGUGGUACAACAUCAUUCAGUAUUUUUACCAUUGCCUGUUUUAGGAAUUGACGUGGACUUGUCAAGGUCACCGUAGGAGUUCAGACUUUCUUUCAUAAGUGUCAACAGAGGAUUGAGCAUCA
B2: chr12:121847077:121847190:-|CDS|ENSG00000158104|unk|FALSE|unique (ssRNA)
RNA: GGGAGUUCUACAGUCCGACGAUCAAAAACCUGCAGUUCCACCGCUUCUGGUCCGUGGAUGACACGCAGGUGCACACGGAAUAUAGCUCUCUGCGAUCCAUUGUGGUGGCCAACUAUGAAGAGUCCAUCAAGAUGCCCAUCAAUCAACAGAGGAUUGAGCAUCA
B3: chr11:61865769:61866452:+|3pUTR|ENSG00000134824|msi1|total|mutant (ssRNA)
RNA: GGGAGUUCUACAGUCCGACGAUCUGCAGCCUGGUCACCCGGCAUCACCCCCGCUUUGGUUCUUCAGAUGCUCUUGGGGUUCACCGGGGCAGGUCCCCGUCGGGCAGGGCCCCUGACCCUCCCGGCCUGGCUUCACUCUCCCUGCAACAGAGGAUUGAGCAUCA
B4: chr8:47773456:47773635:-|3pUTR|ENSG00000253729|msi1_unk|total|mutant (ssRNA)
RNA: GGGAGUUCUACAGUCCGACGAUCGUUUUUUCCUUUCAUUUUAUUCUCUUCCCGUUUUGACAUUUUAUGACCGAUUUGCUCUCCCGAAGGAAACGUCUUUAUUCCGGAGGGCAAAAAUUUUGGUCACCGCAUUCACUUUUGCUACAACAGAGGAUUGAGCAUCA
B5: chr14:102081487:102081564:-|3pUTR|ENSG00000080824|msi1_unk|FALSE|overlapping (ssRNA)
RNA: GGGAGUUCUACAGUCCGACGAUCGAAGAUAAGAUUUCUGUCUACUAAGUGAUGCUGUGAUACCUUAGGCACUAAAGCAGAGCUAGUAAUGCUUUUUGAGUUUCAUGUUGGUUUAUUUUCACAGAUUGGGGUAACGUGCACUGUCAACAGAGGAUUGAGCAUCA
B6: chr8:116854276:116854437:-|CDS|ENSG00000164754|unk|total|mutant (ssRNA)
RNA: GGGAGUUCUACAGUCCGACGAUCAGGAAGCUAAUUGUUGACAGUGUCAAAGAGUUGGACCGCAAGACAAUCCGAGCCCAACUCCGUGAUUAUUCAGAUAUUGUUACUACUUUGGAUCUGGCACCGCCCACCAAGAAAUUGAUGCAACAGAGGAUUGAGCAUCA
B7: chr7:106091418:106091523:-|3pUTR|ENSG00000008282|msi1|FALSE|unique (ssRNA)
RNA: GGGAGUUCUACAGUCCGACGAUCUUUACACCUUAAGCCUUAACAUGUAUCUUCAUUCAGAAAACAGUUAUAUUGUCAUACCAUAGUAGGAAGAAAAACCUUUAUUUGGAAUAUACACUACUGUAAGUUUGUACAGAUCAUAUACAACAGAGGAUUGAGCAUCA
B8: chr3:125012942:125013043:-|CDS|ENSG00000173706|msi1|FALSE|bound_elsewhere (ssRNA)
RNA: GGGAGUUCUACAGUCCGACGAUCGCCUCUUAUGACCACUCCUGGCACCCUGUCAAGCACAGCAUCUCUGGUCACUGGCCCUAUAGCCGUACAGACUACAGCUGGAAAACAGCUCUCGCUGACCCAUCCUGAAAUACUAGUUCCCAACAGAGGAUUGAGCAUCA
B9: chr7:73597181:73597713:-|CDS|ENSG00000009950|control|control|control (ssRNA)
RNA: GGGAGUUCUACAGUCCGACGAUCGCCCAGAGGCAAGCCCCCCGCCCCAUCCCCUAGGGGACAGAAAGCCAGCCCCCCUACCUUAGCCCCUGCCACUGCCAGUCCCCCCACCACUGCGGGGAGCAACAACCCCUGCCUCACACACAACAGAGGAUUGAGCAUCA
B10: chr7:93099512:93101327:-|three_prime_utr|ENSG00000205413|control|control|control (ssRNA)
RNA: GGGAGUUCUACAGUCCGACGAUCUCUCAGUACCCAUUUAAUUUUUUUGGACUCAAGAUCUAUGCUUUAAACCGGCAAGGUUAUAGAUACAGCCUCUAGCUCUUCAGAUCUGUACAUGCAGUAUUUAAUUUCCUCUUAAACAUGCAACAGAGGAUUGAGCAUCA
B11: chr3:167305642:167305950:-|CDS|ENSG00000169064|control|control|control (ssRNA)
RNA: GGGAGUUCUACAGUCCGACGAUCAAAGUCUGAUGAUUCCUGUGUAUCACUUGAAAGCAAGGACACUUUGCUAGGUAGAGAUUUAGAAAAAGCUCCCAUUGAGGAGAAAUUAUCUCAAGACAUCAAAGAAUCCUUGGAAUUGAGCAACAGAGGAUUGAGCAUCA
B12: chr4:75800632:75800752:+|CDS|ENSG00000138768|unk|total|mutant (ssRNA)
RNA: GGGAGUUCUACAGUCCGACGAUCAAACAACUGAUUGAGAAGAGGAUUGGCAAAGAGAAUUUCACCGAGAAACCCGGAUUUAUCCGCAAACAUGAGUUGUAUUCCAGAGCAUCUCAGAAACCCCAGCCAAACUUUCCCAGUCCACAACAGAGGAUUGAGCAUCA
B13: chr10:89738052:89738153:+|CDS|ENSG00000138182|unk|FALSE|bound_elsewhere (ssRNA)
RNA: GGGAGUUCUACAGUCCGACGAUCCUGGAACAACAAAUUGAAAAAUUGCAGGCAGAAGUAAAAGGCUAUAAGGAUGAAAACAAUAGACUAAAGGAGAAGGAGCAUAAAAACCAAGAUGACCUACUAAAAGAAAAAGAAACUCUUCAACAGAGGAUUGAGCAUCA
B14: chr6:13358100:13358202:-|3pUTR|ENSG00000145990|unk|total|mutant (ssRNA)
RNA: GGGAGUUCUACAGUCCGACGAUCAGUAAACAGAGUCUAUAUUUUCUAUAUAAUGCCGACCGUCAAACACCGCUUAUAAAUUACCGGAGGUUUUGGUUUUCUUUUUUAUUAUUAAAGGAAAAAAAGAAGAAAAAAAAAGACAAUCAACAGAGGAUUGAGCAUCA

The binders below were run against T1, UNK ZnF1-6 (called full-length) (human, UniProt Q9C0B0 30-357) (assay: nsRBNS (natural sequence RNA bind-n-seq); RBNS binding buffer (assumed for nsRBNS): 25 mM Tris pH 7.5, 150 mM KCl, 3 mM MgCl2, 0.01% Triton X-100, 500 ug/ml BSA, 20 U/ml SUPERase-In, 4 C; UNK is unkempt and MSI1 is Musashi-1; names of the RNAs are library labels; protein concentration not given here; high values mean tight binding).
T1 sequence: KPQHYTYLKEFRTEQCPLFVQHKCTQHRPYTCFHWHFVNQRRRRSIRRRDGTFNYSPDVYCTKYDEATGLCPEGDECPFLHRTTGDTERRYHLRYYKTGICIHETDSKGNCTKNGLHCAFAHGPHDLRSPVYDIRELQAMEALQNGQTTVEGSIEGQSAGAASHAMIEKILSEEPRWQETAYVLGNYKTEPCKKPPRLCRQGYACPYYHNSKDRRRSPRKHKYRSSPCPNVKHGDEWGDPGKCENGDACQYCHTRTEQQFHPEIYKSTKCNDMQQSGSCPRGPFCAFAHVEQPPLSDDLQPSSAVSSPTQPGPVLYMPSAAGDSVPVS

Row | Binder | binding signal [enrichment R]
1 | B1 | 0.562
2 | B2 | 0.425
3 | B3 | 0.871
4 | B4 | 0.785
5 | B5 | 0.375
6 | B6 | 0.516
7 | B7 | 0.408
8 | B8 | 0.783
9 | B9 | 1.22
10 | B10 | 0.809
11 | B11 | 0.234
12 | B12 | 0.693
13 | B13 | 0.472
14 | B14 | 1.07
